The target of this assay is T1, trastuzumab Fab-CalD2 (HER2-specific Fab fragment derived from trastuzumab, fused at the C-terminus of the …).
T1 construct: also called trastuzumab VH-CH1-hinge-CalD2 with trastuzumab light chain
Put plainly: SPR, 100 nM CalD1-Fc injected over trastuzumab Fab-CalD2 held on immobilized HER2-ECD-Fc in 2 mM CaCl2, then buffer with 2 mM to 0 mM CaCl2 (1 mM EDTA). On the technique in general: In SPR one partner is held on a chip, and binding of the other changes the refractive index at the surface.

B1: CalD1-Fc (human IgG1-derived Fc fragment fused with domain 1 of calbindin D9K) (Fc fusion)
chain: KSPEELKRIFEKYAAKEGDPDQLSKDELKLLIQAEFPSLLKGPGSSV[human IgG1 Fc with changes left out here]
notes: also called CalD1-hinge-Fc; CalD1-Fc fusion
Take B1: the binding result was “binds”.

These data come from US20190381183A1 (TEXAS A AND M UNIVERSITY SYSTEM, published 2019).
